In PubChem BioAssay AID1508642 (National Center for Advancing Translational Sciences (NCATS), 2021):
Hit rate of the full screen: of about 43,000 compounds, about 200 (0.47%) were called active. Not shown: some 12% with an inconclusive outcome. Calls follow the shape of the dose curve; as a rule, active = well fitted cell-killing curve with a large enough effect; inconclusive = small, poorly fitted or top-dose-only effect, or effect the other way; inactive = flat fitted curve, though single readings scatter. This is one part of the list.

test: Cell viability qHTS assay in S16 Pmp22-F2sN cells; settings: S16 Pmp22-F2sN Schwann cells viability, CellTiter-Glo, 24 h; series mostly up to 57.5 µM; activity change, negative = cytotoxicity: at the top concentration; also: nearly all actives have a fitted effect of over 65% in size
Outline: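 Used to flag compounds lowering reporter output through toxicity, this quantitative HTS measures ATP-based CellTiter-Glo luminescence in S16 Pmp22-F2sN Schwann cells after 24 h compound exposure at 37C.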
% is scaled to controls: 0 for no effect and ±100 for the full control effect; potency is read from the fitted curve at half-maximal effect.

Compound | activity change, negative = cytotoxicity | Potency
COc1ccccc1CNc1nc2ccccc2c2nc(-c3cccnc3)nn12 | inactive: 19.2% | –
COc1ccc(CNC(=O)C2CCN(C(=O)c3ccc(-n4ccc5ccccc54)s3)CC2)cc1 | inactive: -5.78% | –
COc1ccc(CCNC(=O)c2cccc(-n3c(C)nc4cccnc43)c2)cc1OC | inactive: 2.81% | –
COc1ccc(-c2cc3nc(-c4ccc(Br)cc4)cc(C(F)(F)F)n3n2)cc1 | inactive: 5.61% | –
COCCCNC(=O)c1cnn(-c2ccccc2Cl)c1C1CCN(C(=O)OC(C)(C)C)CC1 | inactive: -8.26% | –
Cc1ccccc1OCC(=O)Nc1ccc2nc(SCC(=O)N(C)c3ccccc3)sc2c1 | inactive: -0.837% | –
CC(C)(C)OC(=O)N1CCC(c2c(C(=O)N3CCN(c4ccc(Cl)cc4)CC3)cnn2-c2ccc(F)cc2F)CC1 | inactive: -17.3% | –
COc1cccc(NC(=O)C2CCCN(c3nnc(-n4c(C)ccc4C)s3)C2)c1 (stereo unspecified) | inactive: -10.7% | –
COCCCn1c(=N)c(S(=O)(=O)c2ccccc2)cc2c(=O)n3cc(C)ccc3nc21 | inactive: 22.8% | –
COc1ccccc1CNC(=O)CCCn1nc(C)c2sc3ccccc3c2c1=O | inactive: 13.8% | –
CCc1ccc(NC(=O)CSc2c(C)cnc3c2c(=O)n(C)c(=O)n3C)cc1 | inactive: 8.43% | –
Cc1nc2sccn2c(=O)c1S(=O)(=O)NCc1ccc(F)cc1 | inactive: -8.61% | –
Cn1c(=O)c2nc(SCC(=O)Nc3cc(Cl)cc(Cl)c3)n(C)c2n(C)c1=O | inactive: -1.44% | –
Cc1ccc(Cn2c(CNS(=O)(=O)c3ccc(C(C)(C)C)cc3)nc3cccnc32)cc1 | inactive: -11.7% | –
O=C(c1cc(-c2ccc(Cl)cc2)on1)N(Cc1cccc(F)c1)Cc1ccco1 | inactive: 2.75% | –
COc1ccc(CNc2nc(-c3ccco3)nn2C(=O)c2ccccc2Cl)cc1 | inactive: 5.43% | –
COc1cc(NC(=O)c2cc(-c3cccs3)on2)c(OC)cc1Cl | inactive: 12.5% | –
COc1ccc(Cl)cc1NC(=O)c1cc2ccc3ccc(C)[nH]c3c2n1 | inactive: 4.16% | –
Cn1cc(S(=O)(=O)c2ccc(Cl)cc2)c(=O)c2cc(F)c(N3CCCC3)cc21 | inactive: -2.48% | –
COCCn1c(C)cc(O)c(C(c2ccc(C)cc2)N2CCCCC2)c1=O (stereo unspecified) | inactive: -2.54% | –
CC(=O)N1CCc2cc(Br)cc(S(=O)(=O)N3CCN(c4cc(C)ccc4C)CC3)c21 | inactive: 13.8% | –
CC(=O)N1c2ccccc2C(=O)C1N1CCN(c2cccc(C(F)(F)F)c2)CC1 (stereo unspecified) | inactive: 5.81% | –
COc1ccccc1N(CC(=O)Nc1ccc(C)c(Cl)c1)S(=O)(=O)c1ccc(C)cc1 | inactive: 18.6% | –
CCOc1ccc(CC(=O)NC2CC(=O)N(c3ccc(C)c(C)c3)C2)cc1 (stereo unspecified) | inactive: 7.4% | –

Compound | activity change, negative = cytotoxicity | Potency
C#CC(C)(CC)NC(=O)c1cc2c(n(-c3ccc(Cl)cc3)c1=O)CC(C)(C)CC2=O (stereo unspecified) | inactive: 1.35% | –
CCN(CC)c1ccc(NC(=O)c2cc(S(=O)(=O)N3CCc4ccccc43)cn2C)c(C)c1 | inactive: 11.7% | –
Cc1ccccc1OCC(=O)N(Cc1ccc(N(C)C)cc1)CC1CCCO1 (stereo unspecified) | inactive: -2.63% | –
OCc1nc2ccccc2n1Cc1c(F)cccc1Cl | inactive: 0.779% | –
Cn1cc(-c2cc3n(n2)CCC(=O)N3CC(=O)O)c2ccccc21 | inactive: 4.8% | –
Cc1cccc(CNC(=O)CCCN2C(=O)CCn3nc(-c4cn(C)c5ccccc45)cc32)c1 | inactive: -14% | –
Cn1nc(-c2ccccc2F)c2cc(C(=O)N3CCN(c4ccc(F)cc4)CC3)sc21 | inactive: -22.7% | –
CCOC(=O)c1[nH]c(C)c(CCC(=O)NCc2ccccc2C)c1C | inactive: 3.85% | –
CCn1cc(S(=O)(=O)c2ccc(C)cc2)c(=O)c2cc(F)c(N3CCCCCC3)cc21 | inactive: -1.63% | –
CCCN1CCN(CCCNC(=O)Cn2c(-c3cccs3)cc3ccccc32)CC1 | inactive: 5.97% | –
Cc1ccc(NC(=O)CSc2ncnc3c2sc2ccccc23)cc1C | inactive: 10.5% | –
Cc1nn(C(=O)c2cccc(F)c2)c(C)c1S(=O)(=O)N1CCCCCC1 | inactive: -1.48% | –
CCC(C)NC(=O)Cn1c(=O)n(Cc2ccc(C(=O)NCc3ccccc3OC)cc2)c(=O)c2ccccc21 (stereo unspecified) | inactive: 4.94% | –
Cn1c(=O)n(C/C=C/c2ccccc2)c(=O)c2c1nc1n2CCN1c1ccc(Cl)cc1 | inactive: 4.31% | –
COc1ccc(Cn2c(SCc3ccc(C(=O)NCCc4ccccc4)cc3)nc3cccnc32)cc1 | inactive: 1.08% | –
CCN(CC)c1nn2c(=O)c(C(=O)NCc3cccc(C)c3)cnc2s1 | inactive: -0.194% | –
COc1ccc(-c2noc(CN3CCN(c4cccc(Cl)c4)CC3)n2)cc1 | inactive: 1.32% | –
COc1ccc(OC)c(Nc2ncnc3c2cnn3-c2ccc(C)cc2)c1 | inactive: 1.13% | –
Cc1cc(C)cc(NS(=O)(=O)c2ccc3[nH]cc(C(=O)N4CCCCCC4)c(=O)c3c2)c1 | inactive: -3% | –
Cc1ccc(C)c(NC(=O)CSc2nc(=O)n(Cc3ccccn3)c3c2CCC3)c1 | inactive: -1.9% | –
Cc1cccc(N2CCN(S(=O)(=O)c3ccc(F)c(C(=O)Nc4ccc(C(C)C)cc4)c3)CC2)c1C | inactive: -4.42% | –
COc1cc(CN2CCc3nc(N4CCN(c5ccccc5F)CC4)ncc3C2)ccc1OC(C)C | inactive: -4.14% | –
CCCCN(CC)C(=O)Cn1c(=O)n(-c2ccc(OCC)cc2)c(=O)c2c3c(sc21)CCCC3 | inactive: 2.05% | –
Cc1c(C(=O)Nc2ccc(Br)cc2F)sc2ncnc(N(C)C3CCCCC3)c12 | inactive: 26.4% | –

Compound | activity change, negative = cytotoxicity | Potency
Cc1nc2cccnc2n1-c1cccc(C(=O)NCCc2ccc(Cl)cc2)c1 | inactive: -17.9% | –
N#Cc1ccccc1NC(=O)C(=O)NCC(c1ccc2c(c1)OCO2)N1CCN(c2ccccc2)CC1 (stereo unspecified) | inactive: 3.94% | –
CC(C)(C)c1ccc(NC(=O)CSc2nnc3scc(-c4ccccc4)n23)cc1 | inactive: 14.2% | –
CSc1ncc(C(=O)Nc2ccccc2C(=O)c2ccccc2)c(C)n1 | inactive: 15.4% | –
CCOC(=O)c1cnc2c(OC)cccc2c1Nc1cccc(O)c1 | inactive: 15.7% | –
CCOC(=O)c1c(C)[nH]c(C)c1S(=O)(=O)NCC(=O)N(C)c1ccc(C)c(C)c1 | inactive: 6.56% | –
Cn1cnc(S(=O)(=O)N2CCC(C(=O)N3CCN(c4cccc(C(F)(F)F)c4)CC3)CC2)c1 | inactive: 7.37% | –
O=C(Nc1c(C(=O)c2ccccc2)oc2ccccc12)c1cc(=O)c2ccccc2o1 | inactive: 7.02% | –
Cc1cc(C)c2c(C)c(C(=O)N3CCC(c4nc5ccccc5s4)CC3)oc2c1 | inactive: 7.57% | –
CCn1c2ccc(F)cc2c2nnc(SCCN3CCCCC3)nc21 | inactive: 2.87% | –
Cc1cccc(CNC(=O)C2CCN(c3nc4ccc(Cl)cc4[nH]3)CC2)c1 | inactive: -12.3% | –
Cc1ccc(C(=O)Nc2ccccc2F)cc1S(=O)(=O)N1CCOCC1 | inactive: 19% | –
Cc1ccc(NC(=O)CCC(=O)N2CCOc3ccccc32)c(Cl)c1 | inactive: 1.55% | –
Cc1nc2c3ccccc3nc(NNC(=O)CCC(=O)N3CCN(c4ccccc4F)CC3)n2n1 | inactive: 4.48% | –
COc1ccc(C2Nc3ccccc3-c3nnc(SC)nc3O2)cc1C (stereo unspecified) | inactive: 1.88% | –
COc1cc(C2c3c(oc4ccc(C)cc4c3=O)C(=O)N2Cc2ccc(F)cc2)ccc1O (stereo unspecified) | inactive: -0.113% | –
COc1ccc(C(=O)Nc2nnc(S(=O)(=O)N3CCOCC3)s2)cc1 | inactive: -19.5% | –
Cc1nn(C(C)C(=O)NCc2cccc(F)c2)c(=O)c2c1sc1ccccc12 (stereo unspecified) | inactive: 2.94% | –
O=C(CSc1nnc(-c2ccccc2)o1)N1CCCc2ccccc21 | inactive: -4.68% | –
COc1ccc(C)cc1NC(=O)C(NS(=O)(=O)c1cccc2nsnc12)c1ccccc1 (stereo unspecified) | inactive: 1.75% | –
CCOC(=O)N1CCc2c(sc3c2c(=O)n(-c2ccc(Cl)cc2)c(=O)n3CC(=O)Nc2ccccc2)C1 | – | active: 12.6 µM
CCN(CC)C(=O)Cn1cc(SCC(=O)Nc2ccc(C)cc2)c2ccccc21 | inactive: -2.69% | –
CCOCN(C(=O)CSc1nc2ccccc2[nH]1)c1c(C)cccc1CC | inactive: 5.26% | –
O=C(c1ccccc1)c1ccc2nc(Nc3ccccc3Cl)c3nncn3c2c1 | inactive: 6.04% | –

Compound | activity change, negative = cytotoxicity | Potency
CCCCN(CC)C(=O)Cn1nc(C)c2c(C)n(-c3ccccc3)nc2c1=O | inactive: 0.0071% | –
CCOC(=O)c1c(C)oc2nc(C)nc(NCc3cccc(OC)c3)c12 | inactive: -1.85% | –
COc1ccccc1NC(=O)CCNS(=O)(=O)c1ccc2c(c1)CCCC(=O)N2 | inactive: 13.8% | –
CCOC(=O)c1cc(OC(=O)c2ccc(OC)c(OC)c2)n(-c2ccccc2)n1 | inactive: 13.7% | –
COc1ccccc1CNC(=O)CCCn1c(=O)c2ccccc2n(Cc2ccccc2F)c1=O | inactive: 2.56% | –
Cc1ccc(N2CC(C(=O)Nc3ccc(Cl)cc3Cl)CC2=O)cc1 (stereo unspecified) | inactive: -1.38% | –
Cc1sc2c(c1C)c(=O)n(-c1cccc(C(F)(F)F)c1)c(=O)n2Cc1ccc(F)cc1 | inactive: -24.3% | –
COC(=O)c1ccc(NC(=O)CCc2c(C)nc3c(c2C)c(=O)n(C)c(=O)n3C)cc1 | inactive: -3.38% | –
COc1ccccc1Cc1nc2ccccc2nc1SCC(=O)Nc1cccc(Cl)c1C | inactive: -5.07% | –
Cc1ccc(-c2nc3ccc(Cl)cn3c2Nc2ccccc2C)s1 | inactive: -28.6% | –
CC(C)c1cnc2c(c1SCC(=O)NCc1ccccc1)c(=O)n(C)c(=O)n2C | inactive: 16.6% | –
CN(Cc1ccccc1)C(=O)CSc1nc2ccccc2n1Cc1ccccc1F | inactive: 0.934% | –
Cc1ccccc1NC(=O)CSc1nc(=O)n(CCN2CCOCC2)c2c1CCC2 | inactive: 24% | –
COc1ccc(CNC(=O)c2cnc3cc(C)ccn3c2=O)cc1 | inactive: 5.98% | –
COc1cc(NC(=O)CSC2=Nc3ccccc3N=C(c3ccc(F)cc3)C2)cc(OC)c1 | inactive: 20.4% | –
Cc1ccc(NC(=O)c2cnc(SCC(=O)Nc3cc(C)on3)n(C)c2=O)cc1 | inactive: -4.55% | –
Cc1ccc(CNC(=O)Cn2cc(S(=O)(=O)Cc3ccccc3F)c3ccccc32)cc1 | inactive: -20.3% | –
COc1ccccc1N1CCN(C(=O)CCNS(=O)(=O)c2ccc3c(c2)CCN3C(=O)C2CC2)CC1 | inactive: 4.87% | –
CCOC(=O)c1ccc(NC(=O)CC2C(=O)N(c3cccc(OC)c3)C(=O)N2Cc2ccc(OC)cc2)cc1 (stereo unspecified) | inactive: -2.52% | –
C=CCc1ccccc1OCC(O)CN1CCN(c2ccccc2)CC1 (stereo unspecified) | inactive: 14.9% | –
COc1ccccc1C(=O)Nc1ccc2c(c1)nc(CN1CCCCC1)n2C | inactive: 16.2% | –
CCn1c(=O)n(CC)c2cc(N3CCCCC3)c(NC(=O)Nc3ccccc3C(F)(F)F)cc21 | inactive: -14.1% | –
Cc1cc(C)n2nc(SCC(=O)Nc3cccc(C(F)(F)F)c3)nc2n1 | inactive: -8.36% | –
COc1ccc(Cl)cc1NC(=O)c1c(NCc2sccc2C)sc2c1CCCC2 | inactive: -0.378% | –
